# Test results taken from the antibiotic and cytotoxicity screens of Wong et al. (2023).
# The other results are listed elsewhere or left out.
# Tested on: HepG2
# Assay: cytotoxicity call (relative viability < 0.9)
# Settings: 10 µM
row,SMILES,cytotoxicity call
1,COc1ccc(S(=O)(=O)N(C)C[C@H]2Oc3ccc(NC(=O)NC(C)C)cc3CC(=O)N([C@H](C)CO)C[C@@H]2C)cc1,inactive
2,COc1ccc(NC(=O)[C@H]2[C@@H](c3ccc(C)cc3)CC(=O)N2C(=O)OCc2ccccc2)c2ncccc12,active
3,O=C(N[C@@H](c1ccc(-c2ccccc2)cc1)c1cnccn1)C1CCN(Cc2ccc(Oc3ccccc3)cc2)CC1,active
4,COc1ccc(CN(C)C[C@H]2Oc3ccc(NC(=O)Cn4cnnn4)cc3C(=O)N([C@H](C)CO)C[C@@H]2C)cc1,inactive
5,COc1ccc(NC(=O)N(C)C[C@@H]2Oc3ccc(NC(=O)Nc4cccc5ccccc45)cc3C(=O)N([C@@H](C)CO)C[C@@H]2C)cc1,inactive
6,CC(C)NC(=O)N(C)C[C@H]1OCCCC[C@@H](C)Oc2ccc(NS(=O)(=O)c3cn(C)cn3)cc2C(=O)N([C@@H](C)CO)C[C@H]1C,inactive
7,C[C@H]1CN([C@@H](C)CO)C(=O)Cc2cc(NC(=O)Nc3ccc(C(F)(F)F)cc3)ccc2O[C@@H]1CN(C)Cc1ccc(C(=O)O)cc1,inactive
8,CC(C)NC(=O)N(C)C[C@H]1Oc2ccc(NS(=O)(=O)c3cn(C)cn3)cc2CC(=O)N([C@H](C)CO)C[C@H]1C,inactive
9,COCC#Cc1ccc2c(c1)O[C@@H](CN(C)S(=O)(=O)c1cccc(OC)c1)[C@@H](C)CN([C@H](C)CO)S2(=O)=O,inactive
10,C[C@@H]1CN([C@@H](C)CO)C(=O)Cc2cc(NC(=O)Cn3cnnn3)ccc2O[C@H]1CN(C)Cc1ccc(Cl)c(Cl)c1,inactive
11,Nc1nc(Cl)nc2c1ncn2[C@H]1C[C@@H](O)[C@@H](CO)O1,inactive
12,CC(CN(C)C)CN1c2ccccc2Sc2ccccc21.O=C(O)C(O)C(O)C(=O)O (configuration not stated),active
13,C[C@@H]1CCCCO[C@H](CN(C)C(=O)Nc2ccccc2)[C@H](C)CN([C@@H](C)CO)C(=O)c2cc(NS(=O)(=O)c3ccccc3)ccc2O1,inactive
14,C[C@@H]1O[C@@H](O[C@@H]2[C@@H](O)[C@H](OCCc3ccc(O)c(O)c3)O[C@H](COC(=O)/C=C/c3ccc(O)c(O)c3)[C@H]2O)[C@H](O)[C@H](O)[C@H]1O,inactive
15,C[C@@H]1CN([C@@H](C)CO)C(=O)c2cc(NS(=O)(=O)c3ccc(Cl)cc3)ccc2O[C@@H](C)CCCCO[C@H]1CN(C)S(=O)(=O)c1ccc(F)cc1,inactive
16,C[C@@H]1CCCCO[C@H](CN(C)Cc2ccc(C(=O)Nc3ccccc3N)cc2)[C@@H](C)CN([C@@H](C)CO)C(=O)c2cc(NS(=O)(=O)c3ccc(Cl)cc3)ccc2O1,inactive
17,C[C@@H]1CCCCO[C@H](CN(C)Cc2ccc(C(F)(F)F)cc2)[C@@H](C)CN([C@H](C)CO)C(=O)c2cc(NC(=O)Nc3ccc4c(c3)OCO4)ccc2O1,active
18,C[C@@H]1CN([C@H](C)CO)C(=O)c2cc(NC(=O)Nc3ccccc3)ccc2O[C@H]1CN(C)S(C)(=O)=O,inactive
19,Cc1ccc(-c2ccc3c(c2)O[C@@H](CN(C)C(=O)Nc2ccc(C(F)(F)F)cc2)[C@@H](C)CN([C@H](C)CO)S3(=O)=O)cc1,active
20,COC1C(O)CC(=O)OC(C)CC=CC=CC(OC2CCC(N(C)C)C(C)O2)C(C)CC(CC=O)C1OC1OC(C)C(OC2CC(C)(O)C(O)C(C)O2)C(N(C)C)C1O (configuration not stated),active
21,C[C@@H]1CCCCO[C@H](CN(C)C(=O)Cc2ccccc2)[C@H](C)CN([C@@H](C)CO)C(=O)c2cc(NC(=O)Nc3ccc4c(c3)OCO4)ccc2O1,inactive
22,NS(=O)(=O)c1cc2c(cc1Cl)NC(C(Cl)Cl)NS2(=O)=O (configuration not stated),inactive
23,CCO[C@H]1OC(C(=O)N2CCN(Cc3ccc4c(c3)OCO4)CC2)=C[C@@H](c2ccc(C(F)(F)F)cc2)[C@@H]1CCCOC(=O)NCCCCCC(=O)NO,inactive
24,Cc1ccc(S(=O)(=O)Nc2ccc3c(c2)C(=O)N([C@H](C)CO)C[C@H](C)[C@H](CN(C)S(=O)(=O)c2c(C)noc2C)O3)cc1,inactive
25,COc1ccc(CN2C[C@H](C)[C@H](OC)CN(C)C(=O)c3cc(NC(=O)c4nc5ccccc5s4)ccc3OC[C@@H]2C)cc1,inactive
26,C[C@@H]1CN([C@@H](C)CO)C(=O)c2cccc(N(C)C)c2O[C@H]1CN(C)S(=O)(=O)c1ccc(Cl)cc1,inactive
27,C[C@@H]1CCCCO[C@@H](CN(C)Cc2ccc(C(F)(F)F)cc2)[C@H](C)CN([C@H](C)CO)C(=O)c2cc(NC(=O)CCCN(C)C)ccc2O1,inactive
